{"source": "ChEMBL document CHEMBL4888484", "about": "“Replenishing the malaria drug discovery pipeline: Screening and hit evaluation of the MMV Hit Generation Library 1 (HGL1) against asexual blood stage Plasmodium falciparum ,using a nano luciferase reporter read-out” (2022)", "note": "Hit rate of the full screen: of about 150,000 compounds, about 540 (0.36%) showed an effect of 50% or more. Some of the results follow.", "data": [{"tested_on": "Plasmodium falciparum", "assay": "Primary screen in NF54 nanoGlo assay, in single point, at 2uM, 72h; a lower Z score goes with more inhibition", "format": "functional, Erythrocyte", "conditions": "timepoint 72 hour", "units": {"% Inhibition": "%"}, "values": [{"smiles": "CCCN(CC(=O)OC)C(=O)CNC(=O)c1ccc(OC(C)C)cc1", "% Inhibition": -13, "Z score": 1.65}, {"smiles": "Cc1ccc(-n2[nH]c(C(=O)NCc3ccc(Cn4ccnc4)cc3)cc2=O)cc1", "% Inhibition": -12, "Z score": 1.65}, {"smiles": "CN(C(=O)C[C@@H]1C=CCC1)C1CCCC1", "% Inhibition": 0, "Z score": -0.03}, {"smiles": "CCc1nc(N(C)C[C@H](O)c2cccnc2)c2ccsc2n1", "% Inhibition": 2, "Z score": -0.34}, {"smiles": "CC(C)(C)OC(=O)CCC(=O)N1CCS(=O)(=O)C2CCCCC21", "note": "(stereo unspecified)", "% Inhibition": 1, "Z score": -0.09}, {"smiles": "COC[C@H]1CCCCN1C(=O)CCc1nnc[nH]1", "% Inhibition": -1, "Z score": 0.12}, {"smiles": "Cc1nc(N(C)Cc2cc(-c3ccccc3)on2)c2cccnc2n1", "% Inhibition": -29, "Z score": 3.12}, {"smiles": "COc1ccc2c(c1)N1CCN(CC(=O)N3CCOCC3)CC1C(C(=O)NCc1cccc(F)c1)C2", "note": "(stereo unspecified)", "% Inhibition": -10, "Z score": 0.95}, {"smiles": "Clc1cccc2ccc(-c3cncnc3)nc12", "% Inhibition": -18, "Z score": 3.44}, {"smiles": "CCCN(CCN(C)C)C(=O)Cn1nc(C)c(Cl)c1C", "% Inhibition": -3, "Z score": 0.46}, {"smiles": "CCn1ccnc1[C@@H](NC(=O)N1CCN(C(=O)c2ccccc2)CC1)C1CCOCC1", "% Inhibition": 0, "Z score": 0.05}, {"smiles": "CCN(CC)S(=O)(=O)c1csc(C(=O)NC(C)(C)CO)c1", "% Inhibition": -18, "Z score": 1.64}, {"smiles": "CCCN1C[C@@H](NC(=O)c2cccc(-c3ccc(O)cn3)c2)CC1=O", "% Inhibition": -4, "Z score": 0.89}, {"smiles": "Cc1cc(=O)c(C(=O)NCc2ccc3[nH]c(C)c(C)c3c2)c(C)[nH]1", "% Inhibition": 1, "Z score": -0.09}, {"smiles": "CC[C@@H](C(=O)Nc1ccc2c(c1)OCCO2)n1nc(C)c2c(C)onc2c1=O", "% Inhibition": -5, "Z score": 0.51}, {"smiles": "Cn1ncc2c(N)nc(N3CCn4nc([C@@H](O)CO)cc4C3)nc21", "% Inhibition": -19, "Z score": 1.88}, {"smiles": "O=C(c1c(-c2ccc(F)cc2)nc2n1CCS2(=O)=O)N1CCOCC1", "% Inhibition": -6, "Z score": 1}, {"smiles": "CCC(C)NS(=O)(=O)c1cc(NC(=O)CCC2CCCC2)ccc1N1CCCCC1C", "note": "(stereo unspecified)", "% Inhibition": -1, "Z score": 0.08}, {"smiles": "c1cc(-n2ccnn2)c(NCc2cnc(C3CC3)o2)cn1", "% Inhibition": 17, "Z score": -2.17}, {"smiles": "O=C(NC1CCCCC1)N1CCc2c(c3ccccc3n2Cc2ccccc2)C1", "% Inhibition": -7, "Z score": 1.16}, {"smiles": "Cc1c[nH]nc1CNCc1ccc(COC2CCOCC2)cc1", "% Inhibition": 2, "Z score": -0.44}, {"smiles": "CN1C[C@@H](O)CNS(=O)(=O)c2ccc(-c3cccnc3)cc2O[C@H]2CN(CCC(C)(C)C)C[C@H]21", "% Inhibition": -14, "Z score": 2.23}, {"smiles": "CC(C)(C)C(=O)NCCCNC(=O)c1ccco1", "% Inhibition": -29, "Z score": 3.43}, {"smiles": "CCOc1cc(CN2CCC(=O)NC[C@@H]2C)ccc1OCCn1ccnc1", "% Inhibition": 5, "Z score": -0.65}, {"smiles": "COc1ccc(-c2cc(C(=O)N3CC[C@H](n4ccnc4)C3)n[nH]2)cc1", "% Inhibition": 3, "Z score": -0.45}, {"smiles": "O=C(c1csnn1)N1CCc2[nH]nc(-c3ccccc3F)c2C1", "% Inhibition": -7, "Z score": 1.02}, {"smiles": "CC(CNC(=O)N1CCC(C(=O)O)C1)Oc1ccc(C(C)C)cc1", "note": "(stereo unspecified)", "% Inhibition": -8, "Z score": 1.06}, {"smiles": "O=C(NCc1ccc(Cl)cc1)c1ccc2c(=O)n3c(nc2c1)CCCC3", "% Inhibition": 2, "Z score": -0.3}, {"smiles": "CCN1CCc2cc(OC)c(OC)cc2C1C(NC(=O)c1ccc(C)cc1)C(C)C", "note": "(stereo unspecified)", "% Inhibition": -2, "Z score": 0.36}, {"smiles": "Cc1nc(CCCNCc2ccccc2)n(-c2ccncc2C)n1", "% Inhibition": -2, "Z score": 0.34}, {"smiles": "CC(C)COCCN(C)C[C@@H]1CCCO1", "% Inhibition": -7, "Z score": 1.11}, {"smiles": "CS(=O)(=O)N[C@@H]1CC[C@H]2CCOc3ccccc3C(=O)N[C@H]3C[C@@H](C(=O)NC[C@H]1O2)N(Cc1ccc(F)c(F)c1)C3", "% Inhibition": -8, "Z score": 1.41}, {"smiles": "Nc1nonc1-n1nncc1-c1ccncc1", "% Inhibition": -6, "Z score": 0.84}, {"smiles": "Cc1ccsc1-c1cccc(C(=O)N(C)CC2(CO)CCCC2)c1", "% Inhibition": -3, "Z score": 0.56}, {"smiles": "C[C@@]12CN(C(=O)c3ccc4nccn4c3)CC1[C@H]1CC[C@@H]2C1", "note": "(stereo partly specified)", "% Inhibition": -9, "Z score": 1.04}, {"smiles": "Cc1nc(NC(=O)c2cc3n(n2)CCCO3)sc1C", "% Inhibition": -9, "Z score": 1.61}, {"smiles": "Cc1ncc(C(=O)N2CCC[C@H](c3nc4c(C)cccc4[nH]3)C2)c(C)n1", "% Inhibition": 2, "Z score": -0.31}, {"smiles": "CC(=O)C[C@](N)(c1ccc(C)cc1)C(F)(F)F", "% Inhibition": -11, "Z score": 1.54}, {"smiles": "CC1(C)CCN(C(=O)NCc2nnc3n2CCOC3)CC(C)(C)C1", "% Inhibition": -3, "Z score": 0.54}, {"smiles": "Cc1cc(C)cc(CS(=O)(=O)CC(=O)NC(C2CC2)C2CC2)c1", "% Inhibition": -6, "Z score": 1.02}, {"smiles": "CC(NC(=O)Nc1ccc(N2CCCC2)c(F)c1)C1CCCO1", "note": "(stereo unspecified)", "% Inhibition": -10, "Z score": 1.35}, {"smiles": "CC1(C)NC(=O)N(Cc2nc(-c3c[nH]c4ccccc34)n[nH]2)C1=O", "% Inhibition": -29, "Z score": 2.56}, {"smiles": "CN(CCCc1cc(-c2ccc(F)cc2)n(C)n1)C(=O)NCc1ccccc1", "% Inhibition": -4, "Z score": 0.41}, {"smiles": "COc1ncccc1NC(=O)[C@@H]1CCCO1", "% Inhibition": 9, "Z score": -1.24}, {"smiles": "Cc1nnc(CCNc2ncnc3c2Cc2ccccc2OC3)s1", "% Inhibition": 0, "Z score": 0.06}, {"smiles": "COC(=O)C1CN(c2nc3ccccc3s2)C[C@@H](C)O1", "note": "(stereo partly specified)", "% Inhibition": 4, "Z score": -0.57}, {"smiles": "COc1ccc(CCNC(=O)CC[C@@H]2CN(Cc3ccccc3)CC[C@@H]2N2CCN(C)CC2)cc1OC", "% Inhibition": -9, "Z score": 1.11}, {"smiles": "O=C(N[C@H]1CC[C@H](Oc2ccccn2)CC1)c1cc2n(n1)CCCO2", "% Inhibition": -2, "Z score": 0.17}, {"smiles": "Cc1ncc(S(=O)(=O)N2CC[C@H](Cc3ccc(F)cc3)C2)cc1C#N", "% Inhibition": -7, "Z score": 0.74}, {"smiles": "CC(C)[C@@H]1N(C(=O)c2cncs2)CC12CCCC2", "% Inhibition": -2, "Z score": 0.37}, {"smiles": "CN1CCN(C(=O)NCc2cccs2)CC1", "% Inhibition": 9, "Z score": -1.2}, {"smiles": "Cc1cn([C@@H](C)c2ccccc2)nc1NC(=O)CCCc1nc(C2CC2)no1", "% Inhibition": -4, "Z score": 0.46}, {"smiles": "NC(=O)c1ccnc(-c2cc(NCc3ccccn3)nc3[nH]ccc23)c1", "% Inhibition": -11, "Z score": 1.49}]}]}
